# The campaign covered roughly 48,000 compounds. About 550 (1.1%) were called active. Not shown: some 4% with an inconclusive outcome. Rule as the data show it: active = potency below about 15 µM; inconclusive = mostly about 16 µM to 33 µM; inactive = weaker than that. This is one part of the list.
# Target: Lysosomal acid glucosylceramidase (Homo sapiens) (UniProt P04062)
# Assay: Glucocerebrosidase;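 also: the screen sought inhibitors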
# Settings: purified enzyme, resorufin glucoside fluorescence (screen aimed at inhibitors), 20 min
# Summary of the method: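 Wild-type enzyme at 0.2 nM final in 50mM citric acid/KH2PO4, 10mM sodium taurocholate, 0.01% tween-20, pH 5.9, with resorufin beta-D-glucopyranoside at 30 uM final. Compounds titrated, 20 min at RT, red fluorescence read; AC50 from titration.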
# Potency is read from the fitted curve at half-maximal effect.
# Sequence of UniProt P04062 (P04062 whole entry, looked up): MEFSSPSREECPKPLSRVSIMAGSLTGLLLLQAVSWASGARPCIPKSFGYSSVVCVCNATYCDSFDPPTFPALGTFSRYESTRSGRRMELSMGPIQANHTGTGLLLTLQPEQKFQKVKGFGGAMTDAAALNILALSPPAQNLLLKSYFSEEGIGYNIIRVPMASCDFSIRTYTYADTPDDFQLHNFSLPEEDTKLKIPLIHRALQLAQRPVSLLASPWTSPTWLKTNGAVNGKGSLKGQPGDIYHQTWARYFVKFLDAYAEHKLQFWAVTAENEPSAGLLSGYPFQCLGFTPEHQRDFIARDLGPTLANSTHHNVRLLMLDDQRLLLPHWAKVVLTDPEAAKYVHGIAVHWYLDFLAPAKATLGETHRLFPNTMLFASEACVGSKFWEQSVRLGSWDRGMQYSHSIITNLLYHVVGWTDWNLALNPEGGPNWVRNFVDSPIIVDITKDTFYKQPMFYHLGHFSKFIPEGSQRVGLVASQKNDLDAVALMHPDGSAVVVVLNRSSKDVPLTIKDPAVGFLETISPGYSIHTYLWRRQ
row,SMILES,Potency
1,COc1ccc(S(=O)(=O)N2CCC(C(=O)c3ccc4c(c3)OCCO4)CC2)cc1,inactive: > 76.9 µM
2,CN(c1ccccc1C(=O)Nc1ccc2c(c1)OCCO2)S(C)(=O)=O,inactive: > 76.9 µM
3,O=C(Cn1cc(C(=S)N2CCOCC2)c2ccccc21)N1CCOCC1,inactive: > 76.9 µM
4,Nc1nc2c3ccccc3nc(C3CC3)n2n1,inactive: > 76.9 µM
5,O=C(c1cn(CC(=O)N2CCCCC2)c2ccccc12)C1CC1,inactive: > 76.9 µM
6,Cn1c(C2CCCN2C(=O)OC(C)(C)C)n[nH]c1=S (stereo unspecified),inactive: > 76.9 µM
7,COc1cc2[nH]c3c(=O)n(CCN4CCCCC4)cnc3c2cc1OC,inactive: > 76.9 µM
8,Cc1cc(C(=O)Nc2ccccc2C(F)(F)F)no1,inactive: > 76.9 µM
9,Cc1ccc(NC(=O)c2cnn(-c3ccccc3)c2NC(=O)c2ccco2)cc1C,inactive: > 76.9 µM
10,Cc1cc(C)cc(NC(=O)N2CCC(c3nc4ccccc4o3)CC2)c1,inactive: > 76.9 µM
11,COc1ccc(C(=O)NCc2cccnc2)cc1S(=O)(=O)N1CCOCC1,inactive: > 76.9 µM
12,O=C(O)c1ccc(NCc2ccc3c(c2)OCO3)cc1,inactive: > 76.9 µM
13,O=C(Nc1ccc(NC(=O)C2CCCN2C(=O)OCc2ccccc2)cc1)c1ccco1 (stereo unspecified),inactive
14,Cc1[nH]c2ccccc2c1C(=O)CSc1ncn[nH]1,inactive: > 76.9 µM
15,CCn1c(SCC(=O)N2CCCC2)nc2c1c(=O)n(C)c(=O)n2C,inactive: > 76.9 µM
16,Cc1nn(C)cc1NC(=O)CCSc1nc(-c2ccco2)cc(C(F)(F)F)n1,inactive: > 76.9 µM
17,Cc1c(NC(=O)C(C)OC(=O)COc2cccc3c2OC(C)(C)C3)c(=O)n(-c2ccccc2)n1C (stereo unspecified),inactive: > 76.9 µM
18,COc1cccc(N(C(=O)Cn2nnc3ccccc32)C(C(=O)NCc2ccco2)c2cccnc2)c1 (stereo unspecified),inactive
19,CCOc1ccccc1OCC(=O)Nc1ccc(S(=O)(=O)Nc2ncccn2)cc1,inactive: > 76.9 µM

row,SMILES,Potency
1,CCCCCCn1c(SCC(=O)Nc2cc(C)on2)nc2ccccc2c1=O,inactive: > 76.9 µM
2,COC(=O)C1=C(C)NC(=O)NC1c1cn(-c2ccccc2)nc1-c1cccs1 (stereo unspecified),inactive: > 76.9 µM
3,COc1ccccc1-c1cc(C(F)(F)F)nc(S(=O)(=O)CCCC(=O)Nc2cc(C)on2)n1,active: 9.43 µM
4,O=C(CNC(=O)Cn1ccc2ccccc2c1=O)NCCCN1CCN(c2cccc(Cl)c2)CC1,inactive: > 76.9 µM
5,CC(C)P(=O)(Cc1cccc(C#N)c1)C(C)C,inactive: > 76.9 µM
6,CN(C)C(=O)N1CCCC(C(=O)NCc2ccccc2)C1 (stereo unspecified),inactive: > 76.9 µM
7,CCc1nc(N2CCC(C)CC2)c2oc3ccccc3c2n1,inactive: > 76.9 µM
8,Cc1ccc(Cn2nnc3c(=O)n(CC(=O)NCc4ccc5c(c4)OCO5)cnc32)cc1,inactive: > 76.9 µM
9,N#Cc1c(N)c(C(=O)c2ccc(Cl)cc2)n2c1CCC2,inactive: > 76.9 µM
10,CCn1c(=N)c(S(=O)(=O)c2ccc(F)cc2)cc2c(=O)n3ccccc3nc21,inactive: > 76.9 µM
11,C=CCn1c(SCC(=O)Nc2ccc3c(c2)OCO3)nnc1-c1ccccc1OC,inactive: > 76.9 µM
12,COc1cc2c(cc1OC)CN(C(=O)C1(c3ccccc3)CC1)CC2,inactive: > 76.9 µM
13,O=C(Oc1cccc(-n2cnnn2)c1)c1sc2ccccc2c1Cl,inactive: > 76.9 µM
14,Cc1onc(-c2ccccc2)c1C(=O)NCCc1c[nH]c2ccccc12,inactive: > 15.4 µM
15,Cn1c(SCC(=O)Nc2ccccc2F)nnc1-c1ccc(S(=O)(=O)N2CCOCC2)cc1,inactive: > 76.9 µM
16,COc1cc(-c2nc3oc4ccccc4c(=O)c3c(=O)n2Cc2ccco2)cc(OC)c1OC,inactive: > 76.9 µM
17,COc1ccc(-c2nc(N)n[nH]2)cc1OC,inactive: > 76.9 µM
18,COC(=O)c1ccc(CN2C(=O)NC3(CCCCC3C)C2=O)o1 (stereo unspecified),inactive: > 76.9 µM
19,CCCCN(Cc1cc2cc(OC)ccc2[nH]c1=O)C(=O)c1ccco1,inactive: > 76.9 µM

row,SMILES,Potency
1,CCOC(=O)C1CCN(Cc2c(F)cccc2Cl)CC1,inactive: > 76.9 µM
2,CCC(=O)Nc1ccc(C(=O)Nc2ccc3c(c2)OCO3)cc1,inactive
3,CCC(Oc1ccc2c(c1)C(=O)CC(C)(C)O2)C(=O)NCCN1CCCCCC1 (stereo unspecified),inactive: > 76.9 µM
4,CCOC(=O)CCNC(=O)Nc1ccc2nc(C)n(Cc3cccc(Cl)c3)c(=O)c2c1,inactive: > 76.9 µM
5,COc1cc(-c2noc(-c3ccccc3C(=O)NCc3ccco3)n2)cc(OC)c1OC,inactive: > 76.9 µM
6,CCCCC(CC)CNC(=O)CCS(=O)(=O)c1cccc2nonc12 (stereo unspecified),inactive: > 76.9 µM
7,O=C(O)CCCCCNc1nc2ncn(Cc3ccccc3)c2c(=O)[nH]1,inactive: > 76.9 µM
8,Cn1c2ccccc2c2c(C(=O)NCc3ccco3)cn(C3CCCCC3)c(=O)c21,inactive: > 76.9 µM
9,O=C(NCC(c1cccnc1)N1CCN(c2ccc(F)cc2)CC1)C1CCCCC1 (stereo unspecified),inactive: > 76.9 µM
10,CCCCn1c(SCC(=O)Nc2cc(C)[nH]n2)nc2ccsc2c1=O,inactive: > 76.9 µM
11,CC(=O)NCCc1ccc(S(=O)(=O)N(C)C2CCS(=O)(=O)C2)cc1 (stereo unspecified),inactive: > 76.9 µM
12,Cc1ccc2cc(CN(Cc3ccco3)C(=O)C3CCCCC3)c(=O)[nH]c2c1C,inactive: > 76.9 µM
13,N#CCc1nc2n(n1)Cc1ccccc1-2,inactive: > 76.9 µM
14,O=C(c1cccs1)N1CCC(c2ccccc2)C1 (stereo unspecified),inactive: > 76.9 µM
15,O=S(=O)(c1ccccc1)c1nc(-c2ccco2)oc1NCc1cccnc1,inactive: > 76.9 µM
16,COCCn1nnnc1CN1CCC(O)(c2cccc(C(F)(F)F)c2)CC1,inactive: > 76.9 µM
17,N=C1C(c2ccccc2)=C(O)C2CCc3ccccc3N12 (stereo unspecified),inactive: > 76.9 µM
18,CCOc1ccc(Nc2oc(-c3cccs3)nc2C#N)cc1,inactive: > 76.9 µM

# From PubChem BioAssay AID360 (National Center for Advancing Translational Sciences (NCATS), 2006)
